This is an account of results in article PMC4081100.

The list shows a part of the results, in another mix than the full data. For some of these results: At the low end of the ranking the order means little. This is one part of the list. For some of these results: The exact form of the protein is not confirmed.

Test in all cases: universal protein binding microarray (PBM)
Conditions in all cases: transcription factors of Arabidopsis thaliana; high values mean tight binding; most listed sequences are background and not binding sites; double strand, one strand shown

One test addresses GST-NTL6(1-168) (UniProt Q9SCK6).
Another test addresses T1, GST-ANAC019 NAC domain (UniProt Q9C932).
T1 sequence: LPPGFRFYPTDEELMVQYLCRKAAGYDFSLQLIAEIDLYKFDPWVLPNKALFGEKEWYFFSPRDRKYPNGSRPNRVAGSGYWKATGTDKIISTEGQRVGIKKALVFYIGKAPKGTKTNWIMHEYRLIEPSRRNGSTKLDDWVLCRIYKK

The target in another test is T2, GST-ATAF1 NAC domain (UniProt Q39013).
T2 sequence: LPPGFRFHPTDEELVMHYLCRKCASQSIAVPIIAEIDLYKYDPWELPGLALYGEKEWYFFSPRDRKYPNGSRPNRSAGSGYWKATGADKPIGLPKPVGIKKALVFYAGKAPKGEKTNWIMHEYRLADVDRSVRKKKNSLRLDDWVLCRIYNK

The target of a further test is T3, GST-NST2(1-184) (UniProt Q9M274).
T3 sequence: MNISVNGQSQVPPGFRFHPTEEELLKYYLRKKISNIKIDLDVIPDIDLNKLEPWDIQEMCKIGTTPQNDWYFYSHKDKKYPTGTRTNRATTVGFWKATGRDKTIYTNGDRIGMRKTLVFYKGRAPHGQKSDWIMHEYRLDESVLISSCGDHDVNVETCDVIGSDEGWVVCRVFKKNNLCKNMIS

Test [1] has as its target T4, GST-VOZ2 (Arabidopsis thaliana) (UniProt Q9SLB9).
T4 sequence: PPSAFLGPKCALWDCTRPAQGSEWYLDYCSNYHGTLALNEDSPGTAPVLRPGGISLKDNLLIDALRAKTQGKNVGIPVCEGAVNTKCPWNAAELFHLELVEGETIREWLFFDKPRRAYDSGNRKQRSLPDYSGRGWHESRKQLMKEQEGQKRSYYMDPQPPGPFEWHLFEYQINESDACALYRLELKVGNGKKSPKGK

A further test has as its target GST-WRKY1(266-371) (UniProt Q9SI37).
Another test deals with T5, GST-ANAC055(1-171) (UniProt Q9LDY8).
T5 sequence: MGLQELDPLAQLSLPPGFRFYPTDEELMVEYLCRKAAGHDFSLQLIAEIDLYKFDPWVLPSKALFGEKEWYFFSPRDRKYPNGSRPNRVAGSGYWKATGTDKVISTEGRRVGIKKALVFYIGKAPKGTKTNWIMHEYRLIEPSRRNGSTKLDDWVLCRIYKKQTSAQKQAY

The next test addresses T6, GST-NTL8 NAC domain (UniProt Q9XIN7).
T6 sequence: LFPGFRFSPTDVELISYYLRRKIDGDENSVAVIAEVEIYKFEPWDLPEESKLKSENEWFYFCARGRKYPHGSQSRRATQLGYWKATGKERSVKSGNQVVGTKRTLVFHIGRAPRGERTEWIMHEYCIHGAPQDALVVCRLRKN

In test [2] the target is T7, GST-ANAC092(1-285) full length (UniProt Q9FKA0).
T7 sequence: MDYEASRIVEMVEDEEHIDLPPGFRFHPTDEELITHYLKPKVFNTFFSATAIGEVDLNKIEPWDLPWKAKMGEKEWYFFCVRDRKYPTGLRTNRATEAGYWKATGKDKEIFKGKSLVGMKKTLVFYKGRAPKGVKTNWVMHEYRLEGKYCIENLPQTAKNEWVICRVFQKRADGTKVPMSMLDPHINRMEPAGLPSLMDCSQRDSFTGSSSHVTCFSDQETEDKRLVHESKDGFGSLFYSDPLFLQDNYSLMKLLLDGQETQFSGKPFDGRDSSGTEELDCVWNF

In a further test the target is T8, GST-NAP(1-166) (UniProt O49255).
T8 sequence: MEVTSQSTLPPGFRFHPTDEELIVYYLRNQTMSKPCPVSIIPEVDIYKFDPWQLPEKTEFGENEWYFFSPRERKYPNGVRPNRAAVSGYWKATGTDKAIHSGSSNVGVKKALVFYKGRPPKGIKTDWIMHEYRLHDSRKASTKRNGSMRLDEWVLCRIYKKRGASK

Regarding ACACGGCA, the binding signal is -0.0852 E-score with GST-NTL6(1-168); 0.485 E-score in the test with GST-ANAC019 NAC domain; 0.446 E-score with GST-ATAF1 NAC domain; 0.245 E-score in the test with GST-NST2(1-184); -0.0784 E-score in [1]; -0.0389 E-score in the test with GST-WRKY1(266-371).

In the case of AGACGCAA, the binding signal was 0.0768 E-score in the test with GST-NTL6(1-168); 0.222 E-score with GST-ANAC019 NAC domain; 0.246 E-score with GST-ANAC055(1-171); 0.107 E-score in the test with GST-NTL8 NAC domain; 0.0678 E-score in test [1]; 0.0554 E-score with GST-WRKY1(266-371).

Turning to TCACGGCA, the binding signal with GST-NTL6(1-168) is 0.00228 E-score; with GST-ANAC055(1-171) it was 0.438 E-score; in test [2], 0.429 E-score; with GST-NAP(1-166) it was 0.344 E-score; with GST-NTL8 NAC domain, 0.0475 E-score; in test [1] it was 0.033 E-score. Also, the binding signal with GST-WRKY1(266-371) was -0.031 E-score.

In the case of ACGCAATC, the binding signal with GST-NTL6(1-168) was 0.0153 E-score; with GST-ATAF1 NAC domain it was 0.298 E-score; with GST-NTL8 NAC domain, -0.0397 E-score; in [1] it was 0.0836 E-score; with GST-WRKY1(266-371) it was -0.125 E-score.

With CACGTTTC, the binding signal with GST-NTL6(1-168) was 0.107 E-score; with GST-ANAC055(1-171) it was 0.375 E-score; in the test with GST-NTL8 NAC domain, 0.217 E-score; in test [1] it was 0.0736 E-score; with GST-WRKY1(266-371), -0.0638 E-score.

Take CGTACACG: the binding signal with GST-NTL6(1-168) is -0.0348 E-score; with GST-ANAC019 NAC domain it was 0.221 E-score; in the test with GST-NAP(1-166), 0.288 E-score; in the test with GST-NST2(1-184), 0.0623 E-score; with GST-NTL8 NAC domain, -0.0615 E-score; in test [1], -0.0519 E-score. For the same sequence, in the test with GST-WRKY1(266-371), the binding signal came to 0.0423 E-score.

As to CACGTCAC, the binding signal with GST-NTL6(1-168) is -0.0881 E-score; with GST-ANAC055(1-171) it was 0.396 E-score; with GST-ATAF1 NAC domain it was 0.374 E-score; with GST-NTL8 NAC domain, -0.109 E-score; in test [1], 0.0211 E-score; with GST-WRKY1(266-371), 0.0034 E-score.

As for CGTCAACG, the binding signal with GST-NTL6(1-168) was -0.145 E-score; in the test with GST-ANAC055(1-171), 0.0304 E-score; with GST-NST2(1-184), -0.036 E-score; with GST-NTL8 NAC domain, -0.227 E-score; in test [1], -0.0599 E-score; with GST-WRKY1(266-371), 0.47 E-score.

Consider ACGTTACC, for which the binding signal with GST-NTL6(1-168) worked out at 0.0139 E-score; with GST-ANAC019 NAC domain it was 0.263 E-score; with GST-ATAF1 NAC domain, 0.195 E-score; in [2], 0.467 E-score; with GST-NST2(1-184), 0.331 E-score; in the test with GST-NTL8 NAC domain, 0.384 E-score. In addition, the results for the binding signal (in test [1]; with GST-WRKY1(266-371)) were -0.0169 E-score and 0.0431 E-score, respectively.

With ACGGCAAT, the binding signal in the test with GST-NTL6(1-168) is 0.0399 E-score; in the test with GST-ANAC019 NAC domain, 0.409 E-score; with GST-NAP(1-166), 0.236 E-score; in test [1], 0.0117 E-score; with GST-WRKY1(266-371), -0.0412 E-score.

With GACACGCA, the binding signal was -0.103 E-score with GST-NTL6(1-168); 0.304 E-score with GST-ATAF1 NAC domain; 0.283 E-score with GST-NAP(1-166); 0.0711 E-score with GST-NTL8 NAC domain; 0.0798 E-score in [1]; 0.0431 E-score with GST-WRKY1(266-371).

Turning to GTACGGAA, the binding signal in the test with GST-NTL6(1-168) turned out to be 0.0481 E-score; with GST-ATAF1 NAC domain, 0.369 E-score; in test [2], 0.376 E-score; with GST-NST2(1-184), 0.138 E-score; with GST-NTL8 NAC domain, 0.00277 E-score; in test [1], 0.102 E-score. The binding signal with GST-WRKY1(266-371) was -0.00172 E-score.

GTTAAGCA: the binding signal is 0.408 E-score with GST-NTL6(1-168); 0.0907 E-score with GST-ANAC019 NAC domain; -0.127 E-score with GST-NAP(1-166); 0.0417 E-score with GST-NTL8 NAC domain; 0.0263 E-score in test [1]; -0.0552 E-score with GST-WRKY1(266-371).

As for AATACGCA, the binding signal with GST-NTL6(1-168) is 0.109 E-score; with GST-ANAC055(1-171) it was 0.293 E-score; with GST-NTL8 NAC domain, -0.053 E-score; in [1] it was 0.0896 E-score; with GST-WRKY1(266-371), 0.00445 E-score.
